Measured values taken from PubChem BioAssay AID1346428 (National Center for Advancing Translational Sciences (NCATS), 2018).
“And” between values parts separate entries of the source, which are not always exact repeats. Equal values may be shown once. Among all 48,000 compounds or so, about 1,200 (2.5%) were called active. Another 2% or so got no clear call; they are omitted.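 The calls were made as follows: active = activation of at least 60% and not above a set upper limit (about 1 call in 100 departs from these limits); inconclusive = activation of 40% to 60%, or above that upper limit; inactive = activation under 40%.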 The list shows a part of the results.

target: Probable G-protein coupled receptor 32 (Homo sapiens) (UniProt O75388); assay: qHTS for Agonists of Human Resolvin D1 Receptor DRV1; conditions: CHO-K1 GPR32 beta-arrestin PathHunter luminescence, 90 min; at 76.9 µM; active compounds read high; zero percent set by DMSO-only wells
Method in brief: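 Beta-arrestin recruitment read-out: luminescence from complemented beta-Gal in CHO-K1 GPR32 PathHunter cells, measured 1 h after detection reagent at ambient temperature following 90 min compound exposure at 37 °C; DMSO served as basal (EC0) control.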

UniProt O75388, sequence (O75388 whole entry, looked up): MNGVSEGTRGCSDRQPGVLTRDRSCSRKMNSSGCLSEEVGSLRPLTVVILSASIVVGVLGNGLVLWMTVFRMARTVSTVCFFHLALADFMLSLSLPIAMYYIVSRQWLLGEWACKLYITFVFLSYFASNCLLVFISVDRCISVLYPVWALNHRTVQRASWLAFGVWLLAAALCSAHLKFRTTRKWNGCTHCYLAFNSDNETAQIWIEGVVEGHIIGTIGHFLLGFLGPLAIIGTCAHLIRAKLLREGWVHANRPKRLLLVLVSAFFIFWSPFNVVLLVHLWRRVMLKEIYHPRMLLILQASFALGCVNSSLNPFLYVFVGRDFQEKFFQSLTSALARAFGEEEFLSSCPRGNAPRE

| Structure (SMILES) | activation |
| --- | --- |
| O=C(O)COc1nc(Cl)c(Cl)cc1Cl | inactive: 15.9% |
| C#C[C@]1(O)CC[C@H]2[C@@H]3CCC4=CC(=O)CC[C@]4(C)[C@H]3CC[C@@]21C | inactive: -4% |
| CC(C)[N+](C)(CCC(C(N)=O)(c1ccccc1)c1ccccc1)C(C)C | inactive: 7.55% |
| COc1ccc2c(c1)C13CCCCC1C(C2)N(C)CC3 (stereo not given) | inactive: -0.594% |
| O=[N+]([O-])c1c(Cl)c(Cl)cc(Cl)c1Cl | inactive: -13.9% |
| Cc1ccc(N=CN(C)C=Nc2ccc(C)cc2C)c(C)c1 | inactive: -8.94% |
| CC(C)CC(N(C)C)C1(c2ccc(Cl)cc2)CCC1 (stereo not given) | inactive: 34.7% |
| CCOC(=O)c1ccc(NC(=O)c2cccn(Cc3ccc(C)cc3)c2=O)cc1 | inactive: 21.9% |
| C=CCN1CC[C@]23c4c5ccc(O)c4O[C@H]2/C(=N/NC(=O)c2ccccc2)CC[C@@]3(O)[C@H]1C5 | inactive: -4.94% |
| Cc1ccc(Cn2cccc(C(=O)Nc3nnc(C)s3)c2=O)cc1 | inactive: 26.3% |
| CCN(CC)C(=O)c1ccc(NC(=O)Cn2nc(-c3ccc(C)cc3)c3ccccc3c2=O)cc1 | inactive: 11.4% |
| COC(C)(C)CCCC(C)C/C=C/C(C)=C/C(=O)OC(C)C (stereo not given) | inactive: 3.62% |
| CCOc1ccccc1CN(CCc1ccc2c(c1)OCO2)Cc1ccc(CC)cc1 | inactive: -6.59% |
| N[C@@H](Cn1oc(=O)[nH]c1=O)C(=O)O | inactive: -10.7% |
| CSc1ncc(C(=O)Nc2ccc(Cl)cc2C(=O)c2ccccc2)c(C)n1 | inactive: -8.99% |
| Cc1ccccc1-n1c(/C=C/c2ccc(O)cc2)nc2ccccc2c1=O | inactive: -34.3% |
| CC(C)(C)c1ccc(OCC(=O)Nc2ccc(Cl)cc2C(=O)c2ccccc2)cc1 | inactive: 4.21% |
| NC(N)=NOCC[C@H](N)C(=O)O | inactive: -1.65% |
| CC(Cc1ccc2c(c1)OCO2)NO (stereo not given) | inactive: -58.1% |
| N#Cc1cccc(NC(=O)CSc2nc3c(cc2C#N)N2CCC3CC2)c1 | inactive: 20.6% |

| Structure (SMILES) | activation |
| --- | --- |
| CC[C@H]1C[C@H]2[C@@H]3CCC4=CC(=O)CC[C@@H]4[C@H]3CC[C@]2(C)[C@H]1O | inactive: 18.8% |
| Cc1nnc(NC(=O)c2cccn(Cc3cccc([N+](=O)[O-])c3)c2=O)s1 | inactive: -11.6% |
| S=C(NC1CCCCC1)N1CCC(c2cnc[nH]2)CC1 | inactive: -4.84% |
| C[N+]1(CCC(C(N)=O)(c2ccccc2)c2ccccc2)CCCCC1 | inactive: -0.145% |
| c1ccc2c(c1)Sc1ccccc1N2CC1CN2CCC1CC2 (stereo not given) | inactive: 8.89% |
| O=C1C(I)=CC(=C(c2cc(I)c(O)c(I)c2)c2ccccc2C(=O)O)C=C1I | inactive: -13.3% |
| CCCC12CN3CC(C)(CN(C1)C3c1ccccn1)C2=O (stereo not given) | inactive: -5.49% |
| CNCCc1ccc(O)c(O)c1 | inactive: -1.11% |
| Clc1cnc(Oc2ccc(Oc3ncc(Cl)cc3Cl)cc2)c(Cl)c1 | inactive: -12.5% |
| CCCN(CCC)[C@@H]1CCc2ccc(O)cc2C1 | inactive: 0.842% |
| O=c1c2ccccc2nc(/C=C/c2ccccc2O)n1-c1ccc(Br)cc1 | inactive: -37.1% |
| Cc1ccc(-n2nc(C)c3c2NC(=O)CSC3c2ccc(O)cc2)cc1Cl (stereo not given) | inactive: 34.4% |
| C=CC[C@]1(O)CC[C@H]2[C@@H]3CCC4=CC(=O)CCC4=C3C=C[C@@]21C | inactive: 21.4% |
| N#Cc1cccc(NC(=O)c2sc3nc4c(cc3c2N)N2CCC4CC2)c1 | inactive: 40.4% |
| Cc1oc(-c2ccccc2Cl)nc1CN1C(=O)CN=C(c2ccccc2)c2cc(Cl)ccc21 | inactive: -12.3% |
| CCOc1ccc(NC(=O)c2cccn(Cc3cccc(Cl)c3)c2=O)cc1 | inactive: 7.82% |
| Cn1cnc(CCN)c1 | inactive: -11.1% |
| CC(Cc1ccc(O)cc1)NCC(O)c1cc(O)cc(O)c1 (stereo not given) | inactive: -3.2% and inactive: 8.24% |
| CN(N=O)c1ccc(O)c(O)c1 | inactive: 27.9% |
| O=C1CC(c2ccc(F)cc2)c2c(c3ccccc3oc2=O)O1 (stereo not given) | inactive: 3.19% |

| Structure (SMILES) | activation |
| --- | --- |
| COc1ccc(CCNCc2ccc3c(c2)n(C)c(=O)n3C)cc1 | inactive: 5.3% |
| O=C(Nc1ccc(Br)cc1C(=O)c1ccccc1Cl)c1ccccc1F | inactive: -2.65% |
| COc1cc(CC(C)N)cc2c1OCO2 (stereo not given) | inactive: 4.77% |
| N#Cc1cc2c(nc1SCC(=O)Nc1ccc(F)c(Cl)c1)C1CCN2CC1 | inactive: 17.7% |
| CCCN1CCC[C@@H]2Cc3nc(N)ncc3C[C@H]21 | inactive: 38.7% and inactive: 5.61% |
| CCN[C@@H](C)Cc1ccccc1 | inactive: 6.3% |
| C=CCN1C[C@H](C)N([C@H](c2ccc(C(=O)N(CC)CC)cc2)c2cccc(OC)c2)C[C@H]1C | inactive: -0.101% |
| CC(C)=CCOc1c2occc2cc2ccc(=O)oc12 | inactive: 4.79% and inactive: -1.52% |
| N[C@@H](Cc1ccc(N(CCCl)CCCl)cc1)C(=O)O | inactive: -15.5% |
| OC1CCCCC1N1CCC(c2ccccc2)CC1 (stereo not given) | inactive: -5.55% |
| CC(Cc1ccc(OCC(=O)O)cc1)NCC(O)c1cccc(Cl)c1 (stereo not given) | inactive: 8.32% |
| Cc1nnc(NC(=O)c2cccn(Cc3cccc(Cl)c3)c2=O)s1 | inactive: 17.1% |
| O=c1c2ccccc2nc(/C=C/c2ccccc2)n1-c1ccccc1F | inactive: -3.1% |
| O=[N+]([O-])/C=C/c1ccc2c(c1)OCO2 | inactive: -18.3% |
| CC(C)N(CCC(C(N)=O)(c1ccccc1)c1ccccn1)C(C)C (stereo not given) | inactive: -10.8% and inactive: 2.37% and inactive: 6.19% |
| CN1CCN(c2oc(-c3ccc(COc4ccccc4)o3)nc2C#N)CC1 | inactive: -7.29% |
| C[C@]12CCC(=O)C=C1CC[C@@H]1[C@H]3CC[C@](C)(O)[C@@]3(C)CC[C@@H]12 | active: 106% |
| C[C@@H]1[C@@H]2Cc3ccc(O)cc3[C@@]1(C)CCN2CC1CC1 | inactive: -0.695% |
| C[C@H](N)[C@H](O)c1ccc(O)c(O)c1 | inactive: 6.72% |
| COc1cc(C(c2c(O)c3ccccc3oc2=O)c2c(C)n(C)n(-c3ccccc3)c2=O)ccc1O (stereo not given) | inactive: -0.464% |
